# Earlier results as cited in publication PMC11006913.
# Residue numbers refer to the chain shown, from its start. The list shows a part of the results.
# Assays:
# Conditions in all cases: PBM; conditions not shown; double strand, one strand shown; scale: upbm affinity estimate (log intensity, higher = more binding, comparable within an allelic series)
# [1] = biological target: T1, HESX1 E149K (Homo sapiens) (UniProt Q9UBX0)
# T1 sequence: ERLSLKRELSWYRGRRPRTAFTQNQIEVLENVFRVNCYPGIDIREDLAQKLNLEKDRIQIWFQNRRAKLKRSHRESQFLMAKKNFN
# [2] = biological target: T2, HESX1 N125S (Homo sapiens) (UniProt Q9UBX0)
# T2 sequence: T1 sequence with N31S, K55E
# [3] = biological target: T3, HESX1 R160C (Homo sapiens) (UniProt Q9UBX0)
# T3 sequence: T1 sequence with K55E, R66C
# [4] = biological target: NKX2-5 K183E (Homo sapiens) (UniProt P52952)
# [5] = biological target: NKX2-5 R161P (Homo sapiens) (UniProt P52952)
# [6] = biological target: NKX2-5 R190C (Homo sapiens) (UniProt P52952)
# [7] = biological target: PROP1 R112Q (Homo sapiens) (UniProt O75360)
# [8] = biological target: PROP1 R99Q (Homo sapiens) (UniProt O75360)
# [9] = biological target: ISX (Homo sapiens) (UniProt Q2M1V0)
# [10] = biological target: ISX R83Q (Homo sapiens) (UniProt Q2M1V0)
# [11] = biological target: PITX2 L100Q (Homo sapiens) (UniProt Q99697)
# [12] = biological target: PITX2 R108H (Homo sapiens) (UniProt Q99697)
# [13] = biological target: PITX2 R130W (Homo sapiens) (UniProt Q99697)
# [14] = biological target: PITX2 T114P (Homo sapiens) (UniProt Q99697)
# [15] = biological target: T4, PBX4 (Homo sapiens) (UniProt Q9BYU1)
# T4 sequence: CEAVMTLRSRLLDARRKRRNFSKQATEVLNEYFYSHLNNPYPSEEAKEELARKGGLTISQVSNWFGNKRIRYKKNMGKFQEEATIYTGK
# [16] = biological target: T5, PBX4 R215Q (Homo sapiens) (UniProt Q9BYU1)
# T5 sequence: T4 sequence with R19Q
# [17] = biological target: HOXD13 I297V (Homo sapiens) (UniProt P35453)
# [18] = biological target: HOXD13 I322L (Homo sapiens) (UniProt P35453)
# [19] = biological target: HOXD13 N298S (Homo sapiens) (UniProt P35453)
# [20] = biological target: HOXD13 Q325K (Homo sapiens) (UniProt P35453)
# [21] = biological target: HOXD13 Q325R (Homo sapiens) (UniProt P35453)
# [22] = biological target: HOXD13 R306W (Homo sapiens) (UniProt P35453)
# [23] = biological target: HOXD13 S316C (Homo sapiens) (UniProt P35453)
sequence,measurement,setting,value
CCACTTAG [8-mer CCACTTAG],binding signal,[1],10.8
same,binding signal,[2],9.66
same,binding signal,[3],10.3
same,binding signal,[4],12.3
same,binding signal,[5],13.3
same,binding signal,[6],10.8
ACTACATA [8-mer ACTACATA],binding signal,[2],9
CGCCTCCC [8-mer CGCCTCCC],binding signal,[1],9.83
same,binding signal,[2],7.53
same,binding signal,[3],9.86
same,binding signal,[7],10.7
same,binding signal,[8],10.9
AGAATTAT [8-mer AGAATTAT],binding signal,[2],9.27
CAGCGCAG [8-mer CAGCGCAG],binding signal,[1],9.87
same,binding signal,[2],7.37
same,binding signal,[3],9.89
same,binding signal,[7],10.9
same,binding signal,[8],10.9
TAATTGTA [8-mer TAATTGTA],binding signal,[1],11.3
same,binding signal,[2],11.4
same,binding signal,[3],10.5
same,binding signal,[9],14.6
same,binding signal,[10],13.1
same,binding signal,[7],12.6
same,binding signal,[8],12.1
CGGCCCAG [8-mer CGGCCCAG],binding signal,[1],9.78
same,binding signal,[2],7.46
same,binding signal,[3],9.83
same,binding signal,[4],9.95
same,binding signal,[5],9.85
same,binding signal,[6],9.97
CAGGCCGG [8-mer CAGGCCGG],binding signal,[1],9.71
same,binding signal,[2],7.59
same,binding signal,[3],9.85
same,binding signal,[11],8.32
same,binding signal,[12],7.97
same,binding signal,[13],7.85
same,binding signal,[14],8.04
same,binding signal,[7],10.7
same,binding signal,[8],10.7
AATAATAC [8-mer AATAATAC],binding signal,[2],9.22
AGCCCTCC [8-mer AGCCCTCC],binding signal,[1],9.79
same,binding signal,[2],7.57
same,binding signal,[3],10.1
same,binding signal,[7],10.9
same,binding signal,[8],11
CTGCCTCC [8-mer CTGCCTCC],binding signal,[1],9.89
same,binding signal,[2],7.75
same,binding signal,[3],10
same,binding signal,[4],9.97
same,binding signal,[5],10
same,binding signal,[6],9.99
ATTTATAA [8-mer ATTTATAA],binding signal,[2],9.3
ATACATTA [8-mer ATACATTA],binding signal,[2],9.1
AATTACCT [8-mer AATTACCT],binding signal,[1],11.3
same,binding signal,[7],12.7
same,binding signal,[8],12.1
ACAATTAC [8-mer ACAATTAC],binding signal,[1],11.4
same,binding signal,[7],12.6
GCTTCGAC [8-mer GCTTCGAC],binding signal,[1],9.91
same,binding signal,[2],7.72
same,binding signal,[3],10.1
same,binding signal,[7],10.9
same,binding signal,[8],11
AATTATCC [8-mer AATTATCC],binding signal,[1],11.3
same,binding signal,[11],10
same,binding signal,[12],8.85
same,binding signal,[13],8.66
CGCCCGTC [8-mer CGCCCGTC],binding signal,[1],9.95
same,binding signal,[2],7.85
same,binding signal,[3],10.1
same,binding signal,[11],8.28
same,binding signal,[12],8.2
same,binding signal,[13],7.93
same,binding signal,[14],8.12
ATTAGCAA [8-mer ATTAGCAA],binding signal,[2],9.81
same,binding signal,[3],10.3
ACCTCCCA [8-mer ACCTCCCA],binding signal,[1],9.92
same,binding signal,[2],7.71
same,binding signal,[3],10.1
same,binding signal,[11],8.33
same,binding signal,[12],8.23
same,binding signal,[13],8.14
same,binding signal,[14],8.23
AATTACCA [8-mer AATTACCA],binding signal,[1],11.4
same,binding signal,[7],12.7
same,binding signal,[8],12.2
ACGGCGCT [8-mer ACGGCGCT],binding signal,[1],9.95
same,binding signal,[2],7.59
same,binding signal,[3],10
same,binding signal,[7],10.8
same,binding signal,[8],10.8
CAATTGAC [8-mer CAATTGAC],binding signal,[1],10.7
same,binding signal,[2],9.57
same,binding signal,[3],10.3
same,binding signal,[7],12.4
ACGGAGCC [8-mer ACGGAGCC],binding signal,[1],9.86
same,binding signal,[2],7.6
same,binding signal,[3],9.99
same,binding signal,[9],9.76
same,binding signal,[10],9.82
ACGATTAA [8-mer ACGATTAA],binding signal,[2],9.29
AGTGCGAC [8-mer AGTGCGAC],binding signal,[1],10
same,binding signal,[2],7.93
same,binding signal,[3],10.2
same,binding signal,[15],9.93
same,binding signal,[16],9.78
ACCCGAGC [8-mer ACCCGAGC],binding signal,[1],10
same,binding signal,[2],7.8
same,binding signal,[3],10
same,binding signal,[7],11
same,binding signal,[8],10.9
GCAATTAC [8-mer GCAATTAC],binding signal,[1],11.3
same,binding signal,[2],11.3
same,binding signal,[3],10.4
same,binding signal,[8],12.1
AGCCTCCG [8-mer AGCCTCCG],binding signal,[1],9.81
same,binding signal,[2],7.55
same,binding signal,[3],9.94
same,binding signal,[4],10.1
same,binding signal,[5],10.1
same,binding signal,[6],10
AATTGAGA [8-mer AATTGAGA],binding signal,[2],9.58
GATTAGGA [8-mer GATTAGGA],binding signal,[2],9.13
AATGAAAT [8-mer AATGAAAT],binding signal,[2],9.12
AATTATTG [8-mer AATTATTG],binding signal,[2],11.2
CGCAATTA [8-mer CGCAATTA],binding signal,[1],11.4
same,binding signal,[2],11.4
same,binding signal,[3],10.2
same,binding signal,[9],14.7
same,binding signal,[10],13.1
CTCGTTAA [8-mer CTCGTTAA],binding signal,[17],12.7
same,binding signal,[18],12.7
same,binding signal,[19],12.8
same,binding signal,[20],10.3
same,binding signal,[21],11.3
same,binding signal,[22],11.5
same,binding signal,[23],12.4
GGGATCCC [8-mer GGGATCCC],binding signal,[17],9.45
same,binding signal,[18],9.54
same,binding signal,[19],9.25
same,binding signal,[20],9.78
same,binding signal,[21],9.42
same,binding signal,[22],9.56
same,binding signal,[23],9.42
CGCTTGGC [8-mer CGCTTGGC],binding signal,[17],9.59
same,binding signal,[18],9.53
same,binding signal,[19],9.36
same,binding signal,[20],9.45
same,binding signal,[21],9.59
same,binding signal,[22],9.41
same,binding signal,[23],9.45
CGCCTGCC [8-mer CGCCTGCC],binding signal,[17],9.44
same,binding signal,[18],9.37
same,binding signal,[19],9.4
same,binding signal,[20],9.62
same,binding signal,[21],9.49
same,binding signal,[22],9.44
same,binding signal,[23],9.35
GTCCGGAC [8-mer GTCCGGAC],binding signal,[17],9.8
same,binding signal,[18],9.68
same,binding signal,[19],9.75
same,binding signal,[20],9.86
same,binding signal,[21],9.91
same,binding signal,[22],9.73
same,binding signal,[23],9.82
ACACAATA [8-mer ACACAATA],binding signal,[17],11
same,binding signal,[18],10.6
same,binding signal,[19],11.1
same,binding signal,[20],10.5
same,binding signal,[21],10.8
same,binding signal,[22],10.5
same,binding signal,[23],10.9
CCAGCGCA [8-mer CCAGCGCA],binding signal,[17],9.3
same,binding signal,[18],9.44
same,binding signal,[19],9.3
same,binding signal,[20],9.39
same,binding signal,[21],9.51
same,binding signal,[22],9.35
same,binding signal,[23],9.33
GCTATTAA [8-mer GCTATTAA],binding signal,[2],9.67
same,binding signal,[17],12.2
same,binding signal,[18],11.5
same,binding signal,[19],12.4
same,binding signal,[20],11.3
same,binding signal,[21],11.5
same,binding signal,[22],11.4
same,binding signal,[23],12
